Data published in publication PMC5540273 (PLoS ONE, 2017).
For some of these results: Shown are results outside the selection of strong results, which stands elsewhere. The entries are a selection whose mix differs from that of the whole data set.

Legend:
Settings in all cases: concentration: 1 μM,replicates: in singlicate; n = 1
[1] = tested on: ITK
[2] = tested on: JAK1(JH1domain-catalytic)
[3] = tested on: JAK1(JH2domain-pseudokinase)
[4] = tested on: JAK2(JH1domain-catalytic)
[5] = tested on: JAK3(JH1domain-catalytic)
[6] = tested on: T1, JNK1
T1 construct: gene MAPK8

[7] = tested on: T2, JNK2
T2 construct: gene MAPK9

[8] = tested on: T3, JNK3
T3 construct: gene MAPK10

[9] = tested on: KIT-autoinhibited
[10] = tested on: KIT
[11] = tested on: LATS1
[12] = tested on: LATS2
[13] = tested on: LCK
[14] = tested on: LIMK1
[15] = tested on: LIMK2
[16] = tested on: T4, LKB1
T4 construct: gene STK11

[17] = tested on: T5, LOK
T5 construct: gene STK10

[18] = tested on: LRRK2
[19] = tested on: LTK
[20] = tested on: LYN
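Note: KINOMEscan kinase panel screen.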

Compound	%Inh [1]	%Inh [2]	%Inh [3]	%Inh [4]	%Inh [5]	%Inh [6]	%Inh [7]	%Inh [8]	%Inh [9]	%Inh [10]	%Inh [11]	%Inh [12]	%Inh [13]	%Inh [14]	%Inh [15]	%Inh [16]	%Inh [17]	%Inh [18]	%Inh [19]	%Inh [20]
O=C1NC(=O)C(c2ccccc2)=C1Nc1cc(Cl)c(O)c(Cl)c1 [SB-390530]	15%	0%	0%	1%	86%	49%	32%	37%	5%	2%	16%	0%	0%	0%	0%	0%	23%	39%	14%	0%
O=C1NC(=O)C(c2ccc(Cl)cc2)=C1Nc1cccc(C(=O)O)c1 [SB-360737]	13%	5%	0%	13%	0%	24%	12%	5%	0%	0%	0%	0%	17%	11%	11%	0%	9%	0%	3%	0%
O=C1NC(=O)c2c1c(-c1ccccc1)cc1[nH]c3ccc(O)cc3c21	0%	4%	57%	82%	99.2%	23%	16%	9%	26%	43%	0%	28%	0%	0%	0%	13%	55%	13%	0%	0%
Cc1ccc(C)c(Oc2nccc(-c3c(-c4ccc(F)cc4)ncn3C3CCNCC3)n2)c1.O=C(O)C(F)(F)F.O=C(O)C(F)(F)F.O=C(O)C(F)(F)F [SB-284852]	15%	0%	3%	1%	0%	2%	21%	0%	0%	1%	0%	0%	19%	1%	0%	0%	21%	0%	17%	7%
O=C(O)c1ccc(-c2nc(-c3ccc(F)cc3)c(-c3ccncc3)[nH]2)cc1 [SB-202620]	12%	15%	38%	22%	0%	93.6%	98.8%	99.3%	1%	19%	13%	0%	7%	10%	1%	32%	33%	0%	23%	14%
O=C1NC(=O)C(c2ccc(Cl)cc2)=C1Nc1ccccc1 [SB-317661]	0%	0%	50%	46%	11%	0%	0%	0%	20%	0%	0%	0%	0%	0%	0%	0%	0%	0%	0%	0%
CS(=O)(=O)c1ccccc1-c1nc(-c2ccc(F)cc2)c(-c2ccncc2)[nH]1 [SB-213663]	0%	2%	0%	5%	0%	93.2%	99.3%	99.3%	5%	0%	5%	27%	0%	0%	0%	27%	10%	0%	35%	12%
O=C1NC(=O)C(c2ccccc2Cl)=C1Nc1cccc(C(=O)O)c1 [SB-390526]	8%	0%	0%	0%	75%	0%	5%	0%	0%	17%	29%	13%	6%	0%	0%	29%	0%	0%	0%	2%
